# Test results taken from the supplement of paper PMC12217912.
# This is one part of the list. The full chains were built here from the parent and the listed change. Values near 0.05 are background.
# B1: TEV protease; numbered along this chain (parent)
# chain: MGESLFKGPRDYNPISSSICHLTNESDGHTTSLYGIGFGPFIITNKHLFRRNNGTLVVQSLHGVFKVKDTTTLQQHLVDGRDMIIIRMPKDFPPFPQKLKFREPQREERICLVTTNFQTKSMSSMVSDTSCTFPSGDGIFWKHWIQTKDGQCGSPLVSTRDGFIVGIHSASNFTNTNNYFTSVPKNFMELLTNQEAQQWVSGWRLNADSVLWGGHKVFMVKPEEPFQPVKEATQL
# Variants of: B1
# Test: raw area under fraction-flipped curve 0-4 h after induction (AUC4h, not background-subtracted), DNA-recorder readout of cleavage of the substrate (dimensionless); higher = more cleavage of the substrate by the protease variant
# Details: temperature: 34 °C; time window: 0-4 h after rhamnose induction
# Procedure: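 In vivo DNA recorder in E. coli TOP10(DE3) ΔrhaA at 34 °C. Each TEVp single-site mutant (parent TEVp 0) is paired with a single-site variant of the 7-mer TEVs (canonical ENLYFQ|S). The substrate sits between flexible linkers in a Bxb1-sfGFP-TEVs-SsrA fusion, so cleavage stabilises Bxb1 and speeds flipping of a recombination array, read by NGS. The value is the raw area under the fraction-flipped curve over 0-4 h after rhamnose induction (AUC4h), with ≥20 reads per time point. It is not background-subtracted; inactive controls average about 0.047.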
# 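Also: Bxb1 expression induced with 0.2% (w/v) L-rhamnose at OD600 near 0.5, cultures sampled hourly, flipped fraction per protease–substrate barcode pair counted by paired-end Illumina sequencing.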
Variant,area with substrate CNLYFQS,area with substrate DNLYFQS,area with substrate HNLYFQS,area with substrate INLYFQS,area with substrate KNLYFQS,area with substrate LNLYFQS,area with substrate MNLYFQS,area with substrate NNLYFQS,area with substrate PNLYFQS,area with substrate SNLYFQS,area with substrate TNLYFQS,area with substrate WNLYFQS,area with substrate YNLYFQS,area with substrate FNLYFQS,area with substrate RNLYFQS,area with substrate VNLYFQS,area with substrate GNLYFQS,area with substrate QNLYFQS
L73R,0.0541,0.0453,0.0606,0.0454,0.0675,0.0573,0.0196,0.0577,0.0749,0.0546,0.052,,,,,,,
Q75A,0.037,0.118,,0.0413,,0.0693,0.0537,0.0679,0.0366,0.0645,0.0658,0.0574,0.0725,,,,,
Q75E,0.0576,0.0619,0.0571,0.0596,0.0603,0.0641,0.0604,0.0485,0.0634,,0.0564,,0.0601,0.0653,0.0612,0.0659,,
Q75W,0.0578,0.0547,0.0561,0.0523,0.0386,,,,0.0568,0.0518,0.0551,0.0524,0.0563,,,,0.076,0.0573
H76D,0.0529,0.0648,0.0715,0.0638,,,,0.0613,,0.0573,0.0623,0.0378,0.0662,0.0661,,,0.0767,
H76L,0.0526,0.0822,0.0643,,0.0697,,0.0622,0.0707,0.0694,0.0711,,0.0513,0.0574,,,0.067,,
H76M,0.0734,0.082,0.0613,0.0442,,,0.077,,0.0554,,,,,,,0.0598,,
H76W,0.0608,0.0761,0.0553,,0.0563,0.0415,0.0578,0.0793,0.052,,0.0887,,,,,,,
D79F,0.0591,0.0959,0.0611,0.0696,,,0.071,0.0913,0.0702,0.0713,0.0613,0.0751,0.0554,,,,0.0718,
D79K,0.0437,0.09,,,,0.0555,0.0671,0.0609,,0.0733,0.0664,0.0941,0.0677,0.06,,,0.0688,
D79M,0.0695,0.0651,0.0575,0.0534,0.0301,0.0609,0.0604,,0.0531,,,,0.064,0.0595,,,0.0569,
D79S,0.0701,0.0816,0.0588,,0.0517,0.0619,0.059,0.0678,0.0644,0.0688,0.0602,,0.0592,,,0.0628,0.0657,0.0783
D79T,0.0553,0.0715,,,0.0577,0.0617,0.0418,,,0.0675,0.0661,0.0562,,0.0595,,0.0746,,
D79W,0.0661,0.0932,0.0683,,,0.0621,0.0569,,0.0792,0.0613,0.0674,0.0598,,,,,,
D82H,0.0419,0.0633,,0.0531,,,,,0.0651,,,0.0529,0.0462,,,0.0597,0.0564,0.0575
D82L,0.0401,0.0531,0.0421,,,,,0.0478,0.0638,0.0536,0.0514,0.0576,0.048,,,0.0531,,
